No constants are given. Whether binding was seen depends on the method and setting. Binding seen in cells or lysates may run through a third protein. Some binding calls cover weakened binding; strength is not graded here. Where a sequence is shown, tags or fusion partners need not be part of it.
Tests used:
[1] = target: T1, Flag-tagged MTX2 (metaxin 2), adenovirus, in NRVMs (UniProt O88441); assay: co-IP; lysates of NRVMs infected with Ad-Flag-Mtx2; immunoprecipitated with anti-Flag antibody; blotted for endogenous PKM1 and PKM2
T1 sequence: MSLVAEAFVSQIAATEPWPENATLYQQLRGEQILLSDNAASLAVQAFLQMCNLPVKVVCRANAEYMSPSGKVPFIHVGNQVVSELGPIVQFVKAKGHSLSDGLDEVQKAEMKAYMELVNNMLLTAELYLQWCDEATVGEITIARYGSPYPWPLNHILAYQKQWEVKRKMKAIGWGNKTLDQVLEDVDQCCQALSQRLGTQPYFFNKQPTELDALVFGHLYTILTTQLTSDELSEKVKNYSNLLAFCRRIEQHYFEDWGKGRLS

The chains behind the UniProt entries cited, without tags or fusion partners. Where a name states a change or a piece, a line headed by the entry shows the natural chain unless it says otherwise. A line that says so, or that is headed by a name, gives the form on record, which may keep a tag or linker.
PKM2 (pyruvate kinase M2), endogenous in NRVMs (P11980-2, form named): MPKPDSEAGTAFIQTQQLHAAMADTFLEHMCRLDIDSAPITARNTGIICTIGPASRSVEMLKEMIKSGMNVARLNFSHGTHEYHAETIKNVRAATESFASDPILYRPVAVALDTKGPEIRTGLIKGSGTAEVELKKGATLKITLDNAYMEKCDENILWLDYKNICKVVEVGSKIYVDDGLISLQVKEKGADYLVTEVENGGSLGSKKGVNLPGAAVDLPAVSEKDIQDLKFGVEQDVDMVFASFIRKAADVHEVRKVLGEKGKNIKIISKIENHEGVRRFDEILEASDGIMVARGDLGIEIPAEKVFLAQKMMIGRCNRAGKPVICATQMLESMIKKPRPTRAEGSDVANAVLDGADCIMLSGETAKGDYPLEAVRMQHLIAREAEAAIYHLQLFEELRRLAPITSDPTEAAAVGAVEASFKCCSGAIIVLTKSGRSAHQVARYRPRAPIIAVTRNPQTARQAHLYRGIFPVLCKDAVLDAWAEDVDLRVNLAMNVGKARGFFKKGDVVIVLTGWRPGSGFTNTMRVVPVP
UniProt P52480: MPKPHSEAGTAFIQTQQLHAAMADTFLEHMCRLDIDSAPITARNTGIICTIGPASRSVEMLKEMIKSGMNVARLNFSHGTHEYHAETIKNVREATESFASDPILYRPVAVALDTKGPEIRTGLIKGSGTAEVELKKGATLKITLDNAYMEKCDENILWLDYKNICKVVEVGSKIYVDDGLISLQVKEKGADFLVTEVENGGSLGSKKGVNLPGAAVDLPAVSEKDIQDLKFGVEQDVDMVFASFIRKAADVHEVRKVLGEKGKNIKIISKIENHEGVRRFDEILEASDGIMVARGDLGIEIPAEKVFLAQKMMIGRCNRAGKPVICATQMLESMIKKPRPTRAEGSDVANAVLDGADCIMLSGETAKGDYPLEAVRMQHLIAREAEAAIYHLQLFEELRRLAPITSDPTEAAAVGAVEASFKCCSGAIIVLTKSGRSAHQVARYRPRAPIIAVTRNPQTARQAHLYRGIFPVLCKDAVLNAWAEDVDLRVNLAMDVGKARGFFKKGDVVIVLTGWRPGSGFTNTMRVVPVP

[2] = target: T2, Flag-MTX2 (full-length MTX2), plasmid, in Mtx2 KO H9C2 cells (UniProt O88441); assay: co-IP; Mtx2 KO H9C2 cells co-expressing Flag-MTX2 (full length or deletion mutants) and GST-PKM2; whole-cell lysates immunoprecipitated with anti-FLAG antibody
T2 sequence: T1 sequence

[3] = target: T3, Flag-MTX2 (Δ154-195 AA) (UniProt O88441); assay: as above
T3 sequence: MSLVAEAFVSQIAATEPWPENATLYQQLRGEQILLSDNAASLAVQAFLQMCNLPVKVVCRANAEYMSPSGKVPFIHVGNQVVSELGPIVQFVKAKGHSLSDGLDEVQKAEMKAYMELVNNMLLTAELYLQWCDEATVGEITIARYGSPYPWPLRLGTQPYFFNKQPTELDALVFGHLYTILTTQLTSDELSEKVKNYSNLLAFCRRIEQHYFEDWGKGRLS

[4] = target: T4, Flag-MTX2 (Δ41-161 AA) (UniProt O88441); assay: as above
T4 sequence: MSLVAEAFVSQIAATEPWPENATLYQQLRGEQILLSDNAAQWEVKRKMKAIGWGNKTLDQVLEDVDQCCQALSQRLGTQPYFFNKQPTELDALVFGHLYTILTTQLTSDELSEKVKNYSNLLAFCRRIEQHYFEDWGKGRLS

| Substance | binding [1] | binding [2] | binding [3] | binding [4] |
| --- | --- | --- | --- | --- |
| PKM1 (pyruvate kinase M1), endogenous in NRVMs (from UniProt P11980-1 1-531) (enzyme) | no binding | – | – | – |
| GST-PKM2, plasmid, in Mtx2 KO H9C2 cells (from UniProt P52480 1-531) (enzyme) | – | binds | binds | no binding |
| PKM2 (pyruvate kinase M2), endogenous in NRVMs (from UniProt P11980-2 1-531) (enzyme) | binds | – | – | – |

From PMC12203670
